The labels stand for the following.
T1: UNK ZnF1-3 (human, UniProt Q9C0B0 31-174)
T1 sequence: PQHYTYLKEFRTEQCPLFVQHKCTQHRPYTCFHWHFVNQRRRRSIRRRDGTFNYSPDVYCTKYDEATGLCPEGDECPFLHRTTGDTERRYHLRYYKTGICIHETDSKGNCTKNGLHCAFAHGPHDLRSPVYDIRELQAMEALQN

B1: chr4:115894766:115894767:+_ENSMUSG00000028698_ENSMUST00000030464|mus_hu|mus_mus_mus_hu_True|88_108 (ssRNA)
RNA: GGGAGUUCUACAGUCCGACGAUCUUCACACGGAAAUUGUACUUCGGGUUUCCAACGGGCCAGUACCAGUCCGGCCAAACUACCCGAACAGGGUCCUCCCCCUCUCUCCUACAGAACACAACAAAAUGCCCCCGAACUUUCAAGCAACAGAGGAUUGAGCAUCA
B2: chr1:37488339:37488340:+_ENSMUSG00000026111_ENSMUST00000027285|mus_hu|FALSE|FALSE (ssRNA)
RNA: GGGAGUUCUACAGUCCGACGAUCAGCAGGGUCAUCUCUGGCCCACUGGUCCUUCGUCUGUUUUCGAUAAUGAAAAUUUCUGUAAACUCUCUGUGGGGAUGUGAACAGGUAGAGCAUCUGCCAGGCAGCAAAUUCAAAGUCCAUCAACAGAGGAUUGAGCAUCA
B3: chrX:20248820:20248821:+_ENSMUSG00000001924_ENSMUST00000001989|mus_mus|mus_mus_mus_hu_True|58_68 (ssRNA)
RNA: GGGAGUUCUACAGUCCGACGAUCGGCGAAGUCCGUCACCACAAAGUCAGGUUCUGCCAGUGAGGCCGGCAAGGAUUUAAAACUAAUCUUCUUAGGUACUUUGACCUGACUGACGAUGCCUCCACGGAUGUAGUCGGAGAAGUUCAACAGAGGAUUGAGCAUCA
B4: chr5:128448638:128448639:+_ENSG00000066583_ENST00000173527|hu_mus|hu_hu_hu_mus_False|8_18 (ssRNA)
RNA: GGGAGUUCUACAGUCCGACGAUCGGCACUCGCCUUAAUUAGGUUCUGAAUUUCCUUGAACUUCGGGUGGUCUUUGUCAGCCACCAGCUGUAGGAGGACAGCCUCACUAGUGGUCACUAUGAUCCCGGUUCGAGCGAGACGCUCCAACAGAGGAUUGAGCAUCA
B5: 88437549_88438432_921_CDS_ENSMUSG00000028059_ENSMUST00000029694|mouse|control|control (ssRNA)
RNA: GGGAGUUCUACAGUCCGACGAUCCACUUCUGGCUCCAUCUGCAACUCUUCCAGCAUCCCAGUGCGAAAGAGGCGGGUCAUAAUCUUCAAGGUUCUCACGUGGUGCAGCUCUGUCUGGAUCAGCUCAUAGAUGACAUCUUGCUUCAACAGAGGAUUGAGCAUCA
B6: chr5:4754414:4754415:-_ENSMUSG00000044674_ENSMUST00000054294|mus_mus|FALSE|FALSE (ssRNA)
RNA: GGGAGUUCUACAGUCCGACGAUCGAGUAAGCAAAGUGUAUUGUUGAUUGUGUACAACUUUUAGAUUGCAAAGACACAUCUAAUUGCAGUUUGGCUAAAACCAGAAAACAGCGUUUCACUUGGAGUAACUCCACUUCACUGAAACAACAGAGGAUUGAGCAUCA

The list shows a part of the results.

The text below walks through data of publication PMC12136788.

The target in the assay is T1, UNK ZnF1-3. The assay can be described thus: nsRBNS (natural sequence RNA bind-n-seq); RBNS binding buffer (assumed for nsRBNS): 25 mM Tris pH 7.5, 150 mM KCl, 3 mM MgCl2, 0.01% Triton X-100, 500 ug/ml BSA, 20 U/ml SUPERase-In, 4 C; UNK is unkempt and MSI1 is Musashi-1; names of the RNAs are library labels; protein concentration not given here; high values mean tight binding.
The molecule B1 had a binding signal of 1.15 enrichment R. The molecule B2 registered a binding signal of 1.79 enrichment R. The figure for B3 is 0.876 enrichment R. As for B4, the binding signal was 0.466 enrichment R. B5 showed a binding signal of 0.961 enrichment R. The molecule B6 yielded a binding signal of 0.673 enrichment R.
